# Measurements published in the supplement of paper PMC10037445.
# Whole data set: some 2,900 compounds, median “NF-kB SEAP reporter activity, fold change vs agonist alone” near 0.99, cut for the highest 2% near 2.6. The list shows a part of the results.
# Key:
# RAW-Dual [1] = test: NF-kB SEAP reporter activity, fold change vs agonist alone; higher = enhanced NF-kB activity; details: library stock concentration (final ~1000-fold dilution): 10 mM
# Outline: (§1)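 RAW-Dual macrophages were seeded in DMEM at 50,000 cells/well in 384-well plates, given 50 nL of library stock by pin tool, and given a PRR agonist 1 h later. Plates were held at 37 °C, 5% CO2 for 20 hours, after which supernatant was read for IRF by QuantiLuc luminescence and for NF-κB by QuantiBlue absorbance at 620 nm. Reporter activity is expressed as fold change over wells that received agonist alone. A well was called cytotoxic when IncuCyte confluency fell below 70% of agonist controls in both mask sets.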
# RAW-Dual [2] = test: NF-kB SEAP reporter activity, fold change vs agonist alone; cytotoxicity flag (confluency mask): not cytotoxic; higher = enhanced NF-kB activity
# Outline: as §1
# RAW-Dual [3] = test: NF-kB SEAP reporter activity, fold change vs agonist alone; cytotoxicity flag (confluency mask): cytotoxic (confluency <70% of control); higher = enhanced NF-kB activity
# Outline: as §1
# [4] = cytotoxicity flag (confluency mask): not cytotoxic, agonist: Imiquimod (TLR7) […]
# [5] = cytotoxicity flag (confluency mask): not cytotoxic, agonist: MPLA (TLR4) […]
# [6] = agonist: ODN 1826 (TLR9) 0.5 ug/mL
# [7] = agonist: Pam2CSK4 (TLR2/6) 0.1 ug/mL
# [8] = agonist: Pam3CSK4 (TLR2/1) 0.1 ug/mL
smiles,measurement,setting,value
COC(=O)c1ccc(O)c(NC(=O)COc2ccc(C34CC5CC(CC(C5)C3)C4)cc2)c1,NF-kB SEAP reporter activity,RAW-Dual [1]; [4],1.1
same,NF-kB SEAP reporter activity,RAW-Dual [1]; [5],0.981
COC(=O)c1ccc(O)c(NC(=O)COc2ccc(C34CC5CC(CC(C5)C3)C4)cc2)c1 (library stock concentration (final ~1000-fold dilution): 10 mM),NF-kB SEAP reporter activity,RAW-Dual [2]; agonist: LPS (TLR4) 0.1 ug/mL,0.69
same,NF-kB SEAP reporter activity,RAW-Dual [2]; [6],1.01
same,NF-kB SEAP reporter activity,RAW-Dual [2]; [7],0.588
same,NF-kB SEAP reporter activity,RAW-Dual [2]; [8],0.704
Cc1cnc(Nc2ccc(N3CCN(C)CC3)cc2)nc1Nc1cccc(S(=O)(=O)NC(C)(C)C)c1 (library stock concentration (final ~1000-fold dilution): 10 mM),NF-kB SEAP reporter activity,RAW-Dual [2]; agonist: LPS (TLR4) 0.1 ug/mL,7
CC(C)CCN1c2nc(Nc3cc(F)c(O)c(F)c3)ncc2N(C)C(=O)C1C (centres undefined) (library stock concentration (final ~1000-fold dilution): 10 mM),NF-kB SEAP reporter activity,RAW-Dual [2]; agonist: LPS (TLR4) 0.1 ug/mL,4.3
same,NF-kB SEAP reporter activity,RAW-Dual [2]; [6],2.63
same,NF-kB SEAP reporter activity,RAW-Dual [2]; [7],1.02
same,NF-kB SEAP reporter activity,RAW-Dual [2]; [8],2.05
CC(C)CCN1c2nc(Nc3cc(F)c(O)c(F)c3)ncc2N(C)C(=O)C1C (centres undefined),NF-kB SEAP reporter activity,RAW-Dual [1]; [4],2.84
same,NF-kB SEAP reporter activity,RAW-Dual [1]; [5],2.55
O=C1NC(=O)/C(=C/c2ccc(-c3ccc(F)cc3O)o2)S1,NF-kB SEAP reporter activity,RAW-Dual [1]; [4],0.696
same,NF-kB SEAP reporter activity,RAW-Dual [1]; [5],1.09
O=C1NC(=O)/C(=C/c2ccc(-c3ccc(F)cc3O)o2)S1 (library stock concentration (final ~1000-fold dilution): 10 mM),NF-kB SEAP reporter activity,RAW-Dual [2]; agonist: LPS (TLR4) 0.1 ug/mL,0.929
same,NF-kB SEAP reporter activity,RAW-Dual [2]; [6],0.492
same,NF-kB SEAP reporter activity,RAW-Dual [2]; [7],0.646
same,NF-kB SEAP reporter activity,RAW-Dual [2]; [8],0.541
CCCCCCCCCCCCCCCCCC(=O)O,NF-kB SEAP reporter activity,RAW-Dual [1]; [4],0.96
same,NF-kB SEAP reporter activity,RAW-Dual [1]; [5],1.05
CCCCCCCCCCCCCCCCCC(=O)O (library stock concentration (final ~1000-fold dilution): 10 mM),NF-kB SEAP reporter activity,RAW-Dual [2]; agonist: LPS (TLR4) 0.1 ug/mL,0.849
same,NF-kB SEAP reporter activity,RAW-Dual [2]; [6],1.02
same,NF-kB SEAP reporter activity,RAW-Dual [2]; [7],0.95
same,NF-kB SEAP reporter activity,RAW-Dual [2]; [8],1.17
O=C(C=Cn1cnc(-c2cc(C(F)(F)F)cc(C(F)(F)F)c2)n1)N1CC(F)(F)C1,NF-kB SEAP reporter activity,RAW-Dual [1]; [4],1.17
same,NF-kB SEAP reporter activity,RAW-Dual [1]; [5],0.953
O=C(C=Cn1cnc(-c2cc(C(F)(F)F)cc(C(F)(F)F)c2)n1)N1CC(F)(F)C1 (library stock concentration (final ~1000-fold dilution): 10 mM),NF-kB SEAP reporter activity,RAW-Dual [2]; agonist: LPS (TLR4) 0.1 ug/mL,0.368
same,NF-kB SEAP reporter activity,RAW-Dual [2]; [6],0.741
same,NF-kB SEAP reporter activity,RAW-Dual [2]; [7],0.632
same,NF-kB SEAP reporter activity,RAW-Dual [2]; [8],0.492
CCn1c(=O)c(-c2ccc(-c3cncs3)cc2Cl)cc2cnc(Nc3ccc(N4CCN(C)CC4)cc3)nc21 (library stock concentration (final ~1000-fold dilution): 10 mM),NF-kB SEAP reporter activity,RAW-Dual [2]; agonist: LPS (TLR4) 0.1 ug/mL,1.62
same,NF-kB SEAP reporter activity,RAW-Dual [2]; [6],1.39
same,NF-kB SEAP reporter activity,RAW-Dual [2]; [7],0.8
same,NF-kB SEAP reporter activity,RAW-Dual [2]; [8],1.34
CCn1c(=O)c(-c2ccc(-c3cncs3)cc2Cl)cc2cnc(Nc3ccc(N4CCN(C)CC4)cc3)nc21,NF-kB SEAP reporter activity,RAW-Dual [1]; [4],0.522
same,NF-kB SEAP reporter activity,RAW-Dual [1]; [5],1.72
CC[N+](CC)(CC)CC,NF-kB SEAP reporter activity,RAW-Dual [1]; [4],0.949
same,NF-kB SEAP reporter activity,RAW-Dual [1]; [5],1.05
CC[N+](CC)(CC)CC (library stock concentration (final ~1000-fold dilution): 10 mM),NF-kB SEAP reporter activity,RAW-Dual [2]; agonist: LPS (TLR4) 0.1 ug/mL,0.917
same,NF-kB SEAP reporter activity,RAW-Dual [2]; [6],1
same,NF-kB SEAP reporter activity,RAW-Dual [2]; [7],1.1
same,NF-kB SEAP reporter activity,RAW-Dual [2]; [8],1.03
Br.Br.NCCCCCNCC12CC3CC(CC(C3)C1)C2 (library stock concentration (final ~1000-fold dilution): 10 mM),NF-kB SEAP reporter activity,RAW-Dual [2]; agonist: LPS (TLR4) 0.1 ug/mL,1.18
same,NF-kB SEAP reporter activity,RAW-Dual [2]; [6],0.944
same,NF-kB SEAP reporter activity,RAW-Dual [2]; [7],0.83
same,NF-kB SEAP reporter activity,RAW-Dual [2]; [8],1.01
Br.Br.NCCCCCNCC12CC3CC(CC(C3)C1)C2,NF-kB SEAP reporter activity,RAW-Dual [1]; [4],1.09
same,NF-kB SEAP reporter activity,RAW-Dual [1]; [5],1.15
CN1CCN(CCCNc2ncc(Cl)c(-c3cc4c(C(=O)NC5CC5)cccc4s3)n2)CC1,NF-kB SEAP reporter activity,"RAW-Dual [1]; cytotoxicity flag (confluency mask): cytotoxic (confluency <70% of control), agonist: Imiquimod (TLR7) […]",0.205
same,NF-kB SEAP reporter activity,"RAW-Dual [1]; cytotoxicity flag (confluency mask): cytotoxic (confluency <70% of control), agonist: MPLA (TLR4) […]",0.309
CN1CCN(CCCNc2ncc(Cl)c(-c3cc4c(C(=O)NC5CC5)cccc4s3)n2)CC1 (library stock concentration (final ~1000-fold dilution): 10 mM),NF-kB SEAP reporter activity,RAW-Dual [3]; agonist: LPS (TLR4) 0.1 ug/mL,0.309
same,NF-kB SEAP reporter activity,RAW-Dual [3]; [6],0.195
same,NF-kB SEAP reporter activity,RAW-Dual [3]; [7],0.0714
same,NF-kB SEAP reporter activity,RAW-Dual [3]; [8],0.165
Cl.OC(CCCN1CCCCC1)(c1ccccc1)c1ccccc1,NF-kB SEAP reporter activity,RAW-Dual [1]; [4],0.99
same,NF-kB SEAP reporter activity,RAW-Dual [1]; [5],1.03
Cl.OC(CCCN1CCCCC1)(c1ccccc1)c1ccccc1 (library stock concentration (final ~1000-fold dilution): 10 mM),NF-kB SEAP reporter activity,RAW-Dual [2]; agonist: LPS (TLR4) 0.1 ug/mL,0.99
same,NF-kB SEAP reporter activity,RAW-Dual [2]; [6],0.832
same,NF-kB SEAP reporter activity,RAW-Dual [2]; [7],1
same,NF-kB SEAP reporter activity,RAW-Dual [2]; [8],0.992
CCN(CC)Cc1cc(Nc2ccnc3cc(Cl)ccc23)ccc1O.Cl.Cl.O.O,NF-kB SEAP reporter activity,RAW-Dual [1]; [4],0.244
same,NF-kB SEAP reporter activity,RAW-Dual [1]; [5],0.82
CCN(CC)Cc1cc(Nc2ccnc3cc(Cl)ccc23)ccc1O.Cl.Cl.O.O (library stock concentration (final ~1000-fold dilution): 10 mM),NF-kB SEAP reporter activity,RAW-Dual [2]; agonist: LPS (TLR4) 0.1 ug/mL,0.419
same,NF-kB SEAP reporter activity,RAW-Dual [2]; [6],0.184
same,NF-kB SEAP reporter activity,RAW-Dual [2]; [7],0.719
same,NF-kB SEAP reporter activity,RAW-Dual [2]; [8],0.633
CCC(c1ccc(O)cc1)C(CC)c1ccc(O)cc1 (centres undefined),NF-kB SEAP reporter activity,RAW-Dual [1]; [4],1.28
same,NF-kB SEAP reporter activity,RAW-Dual [1]; [5],1.24
CCC(c1ccc(O)cc1)C(CC)c1ccc(O)cc1 (centres undefined) (library stock concentration (final ~1000-fold dilution): 10 mM),NF-kB SEAP reporter activity,RAW-Dual [2]; agonist: LPS (TLR4) 0.1 ug/mL,1.36
same,NF-kB SEAP reporter activity,RAW-Dual [2]; [6],0.712
same,NF-kB SEAP reporter activity,RAW-Dual [2]; [7],0.842
same,NF-kB SEAP reporter activity,RAW-Dual [2]; [8],0.989
CN(C)CCCNC(=O)c1ccc(-c2cc(O)c3ncccc3c2)cc1,NF-kB SEAP reporter activity,RAW-Dual [1]; [4],1.08
same,NF-kB SEAP reporter activity,RAW-Dual [1]; [5],1
CN(C)CCCNC(=O)c1ccc(-c2cc(O)c3ncccc3c2)cc1 (library stock concentration (final ~1000-fold dilution): 10 mM),NF-kB SEAP reporter activity,RAW-Dual [2]; agonist: LPS (TLR4) 0.1 ug/mL,0.881
same,NF-kB SEAP reporter activity,RAW-Dual [2]; [6],1.38
same,NF-kB SEAP reporter activity,RAW-Dual [2]; [7],1.13
same,NF-kB SEAP reporter activity,RAW-Dual [2]; [8],1.34
